{"source": "ChEMBL document CHEMBL4888484", "about": "“Replenishing the malaria drug discovery pipeline: Screening and hit evaluation of the MMV Hit Generation Library 1 (HGL1) against asexual blood stage Plasmodium falciparum ,using a nano luciferase reporter read-out” (2022)", "note": "Hit rate of the full screen: of about 150,000 compounds, about 540 (0.36%) showed an effect of 50% or more. The list shows a part of the results."}
{"tested_on": "Plasmodium falciparum", "experiment": "Primary screen in NF54 nanoGlo assay, in single point, at 2uM, 72h; a lower Z score goes with more inhibition", "assay_type": "functional, Erythrocyte", "conditions": "timepoint 72 hour", "units": {"% Inhibition": "%"}}
{"smiles": "CN(C)c1ncccc1NS(=O)(=O)c1cc(F)c(F)c(F)c1", "% Inhibition": -4, "Z score": 0.43}
{"smiles": "O=C(c1cccnc1O)N1CCC[C@H](c2nccn2Cc2ccccc2)C1", "% Inhibition": -7, "Z score": 1.4}
{"smiles": "CCN1Cc2nc(OC)c(CNC(=O)N(C)Cc3noc(C)n3)cc2C1=O", "% Inhibition": -3, "Z score": 0.36}
{"smiles": "Cc1cccc(C)c1OCCN(C)C(=O)CC[C@H]1CCCCN1C", "% Inhibition": -10, "Z score": 1.4}
{"smiles": "COc1ccc(CCNC(=O)Cc2cc(OCc3ccccc3)c(OC)cc2Br)cc1OC", "% Inhibition": -12, "Z score": 2.15}
{"smiles": "COc1ccc(-c2nc(NCc3ccc(F)cc3)[nH]c(=O)c2C#N)cc1", "% Inhibition": -5, "Z score": 0.88}
{"smiles": "CC(C)CN1Cc2cccc(NS(=O)(=O)c3cccnc3)c2C1", "% Inhibition": 29, "Z score": -3.84}
{"smiles": "O=C(O)c1ccc(CN2CC[C@H](c3nc4ccccc4o3)C2)cc1", "% Inhibition": -13, "Z score": 1.65}
{"smiles": "CC1CCN(S(=O)(=O)c2ccc(CNC(=O)C3CCCCC3)s2)CC1", "% Inhibition": -32, "Z score": 3.22}
{"smiles": "CCOc1cccnc1C(=O)N1CCC[C@H](c2[nH]ncc2CN2CCOCC2)C1", "% Inhibition": -4, "Z score": 0.67}
{"smiles": "O=C(c1cccc2ccccc12)N1CCc2nc(-c3cccc(F)c3)[nH]c(=O)c2C1", "% Inhibition": -14, "Z score": 1.35}
{"smiles": "O=C(Nc1nc(C(=O)N2CCCC2)co1)c1cnccn1", "% Inhibition": -12, "Z score": 2.41}
{"smiles": "CC(C)N1CC(=O)N(c2cc(-c3ccccc3)ns2)C1=O", "% Inhibition": -5, "Z score": 0.51}
{"smiles": "CC1(C)C[C@@H]1C(=O)NCc1cccc(=O)[nH]1", "% Inhibition": -7, "Z score": 1.25}
{"smiles": "Cc1cc(C)n(C[C@H](O)COCc2ccco2)n1", "% Inhibition": -6, "Z score": 1.06}
{"smiles": "O=C1N[C@H]2C[C@@H](C(=O)NC[C@H]3O[C@H](CCOc4cc(-c5ccccc5)ccc41)CC[C@@H]3O)N(Cc1ccc(Cl)c(F)c1)C2", "% Inhibition": 37, "Z score": -4.16}
{"smiles": "Cc1nccn1CC[C@H](C)N1CCC2(CC1)CN(CCC(C)C)C(=O)O2", "% Inhibition": -8, "Z score": 1.55}
{"smiles": "CCN(CC)C(=O)N1CC(N(Cc2ccccn2)S(C)(=O)=O)C1", "% Inhibition": 2, "Z score": -0.35}
{"smiles": "Cc1noc(C)c1CC(=O)Nc1nc(-c2ccc(S(=O)(=O)N(C)C)cc2)cs1", "% Inhibition": 8, "Z score": -1.09}
{"smiles": "Cc1ccc(F)c(Cn2cnc3nc(C)c(CCO)c(=O)n32)c1", "% Inhibition": -6, "Z score": 1.19}
{"smiles": "O=C(CCn1cncn1)Nc1cc(Cl)cc(Cl)c1", "% Inhibition": -13, "Z score": 1.68}
{"smiles": "O=C(Cc1cccs1)NCCc1ccsc1", "% Inhibition": -2, "Z score": 0.3}
{"smiles": "CO[C@H]1CCCOC12CCN(C(=O)CCn1c(C)nc3ccccc31)CC2", "% Inhibition": -10, "Z score": 0.96}
{"smiles": "Cc1c(Cl)cccc1NC(=O)CC(=O)NCCNC(=O)C(C)C", "% Inhibition": -5, "Z score": 1.08}
{"smiles": "O=C(c1ccsc1)N1CC[C@@H](c2cccs2)S(=O)(=O)CC1", "% Inhibition": -15, "Z score": 2.49}
{"smiles": "Cc1cccc(CN2CCN(Cc3ccncc3)[C@@H]3CS(=O)(=O)C[C@@H]32)n1", "% Inhibition": -11, "Z score": 2.25}
{"smiles": "COC[C@H]1CC[C@H]1NC(=O)c1sccc1OC", "% Inhibition": 3, "Z score": -0.42}
{"smiles": "Cn1nnc2cc(CN(CC(=O)O)C3CCCC3)ccc21", "% Inhibition": -18, "Z score": 1.61}
{"smiles": "O=C(c1cn2cc(-c3ccc4c(c3)OCO4)ccc2n1)N1CCN(Cc2ccccc2)CC1", "% Inhibition": -8, "Z score": 1.24}
{"smiles": "CCOC(=O)[C@@]1(CCOc2ccccc2)CCCN(C)C1", "% Inhibition": 6, "Z score": -0.9}
{"smiles": "CC1(C)CN(C(=O)c2cc(N3CCCC3=O)cc(C(F)(F)F)c2)CCN1", "% Inhibition": -3, "Z score": 0.43}
{"smiles": "CCOc1ccc(-c2noc([C@@H]3Cc4ccccc4N3C(C)=O)n2)cc1Cl", "% Inhibition": 19, "Z score": -2.19}
{"smiles": "O=C(Nc1ccc(Br)cn1)c1ccc(-c2ccc(Cl)c(Cl)c2)o1", "% Inhibition": 31, "Z score": -3.51}
{"smiles": "CCOC(=O)CNc1cccc(C(C)(F)F)c1", "% Inhibition": 4, "Z score": -0.49}
{"smiles": "O=S1(=O)CCc2nnc(-c3ccc4c(c3)OCCO4)n2CC1", "% Inhibition": 2, "Z score": -0.36}
{"smiles": "CCC(C(=O)Nc1ccc(C)c(NC(=O)C(CC)c2ccccc2)c1)c1ccccc1", "note": "(centres undefined)", "% Inhibition": -27, "Z score": 3.19}
{"smiles": "CC1CCN(c2ncc3c(n2)CC[C@H](C(=O)N(C)CC(=O)N2CCCCCC2)C3)CC1", "% Inhibition": 5, "Z score": -0.8}
{"smiles": "CCC1(CNC(=O)N(Cc2ccccn2)Cc2sccc2C)CC1", "% Inhibition": -22, "Z score": 2.42}
{"smiles": "CCn1cnnc1CN(C)Cc1nc(COC)no1", "% Inhibition": 1, "Z score": -0.12}
{"smiles": "N#Cc1ccc(C(=O)Nc2ccccc2OC[C@H]2CCCO2)cn1", "% Inhibition": -8, "Z score": 1.18}
{"smiles": "CCCNC(=O)CCc1nc(N2CC(C)CC(C)C2)c2c(C)noc2n1", "note": "(centres undefined)", "% Inhibition": -5, "Z score": 0.85}
{"smiles": "CC1CN(Cc2ccccn2)CCC1NC(=O)c1cccc(F)c1", "note": "(centres undefined)", "% Inhibition": -1, "Z score": 0.18}
